Measured values reported in PMC10668032.
The other results are listed elsewhere or left out. At the low end of the ranking, values are background and their order means little.

Target: SIX1 homeodomain (reference allele) (UniProt Q15475)
Assay: universal protein binding microarray
Settings: Universal all-10-mer PBM (8x60K, AMADID 030236), 300 nM GST-tagged protein, Alexa Fluor 488 anti-GST; buffer, salt, pH and temperature not stated; high values mean tight binding; most listed sequences are background and not binding sites; double strand, one strand shown

Sequence | binding signal [E-score]
GCCGTCCC | -0.243
CTTTCAAA | -0.171
GCCCGTCA | -0.121
CTGCCCAG | -0.0635
CGACACAC | 0.1
AACGCTCG | -0.161
CGACCGGC | -0.274
GGTTTCCA | -0.174
CCCAAGAC | -0.0634
ATTCGGGG | 0.17
CCACCACA | -0.0545
TAGCTACA | 0.15
AGTTGTAA | -0.183
GAATTCAA | 0.00865
GGGCTCGA | -0.0193
CACCCTAG | 0.157
AGTATGAA | -0.0157
CAATGGGG | 0.0706
CGGCCAGC | -0.194
TACGATGA | 0.0552
ATTACCCA | 0.0354
AGCCGTGG | -0.194
CGTCACAG | -0.0541
CTTACACC | 0.203
AGATTACG | 0.0717

Sequence | binding signal [E-score]
AAGAGAGA | -0.124
CCAAGTAC | -0.12
ACTCCCAA | -0.0678
AGCTCGGC | 0.00286
AACATGTA | 0.117
AGTGACCG | -0.196
CGGCCCAC | -0.179
ATTACGGG | 0.0536
ACCCTTTG | 0.00558
GACTACGA | -0.168
GGGAATGA | -0.0264
ACAACGAT | 0.18
TAACTGCA | -0.178
CCTGTAAG | -0.0955
CAGGTGCA | -0.291
GAATTAAC | -0.257
CTGTGGTA | -0.175
CCCAGGCA | -0.133
ATTGCTTG | -0.108
CGTGTGCA | -0.0416
GGATGCAA | 0.148
CCGCCACG | -0.0109
ACGTATCG | 0.413
CAATACGG | 0.178
AGTGCACA | -0.0066

Sequence | binding signal [E-score]
CCATACAC | 0.174
CTTCTCTC | -0.147
CAGAACTG | -0.103
CGAAGGCA | -0.241
CTTACCGC | -0.16
CCACCTGG | -0.169
GTGCTGGA | -0.129
GGTCCGGA | 0.0198
CGCATGAC | -0.131
TCGGCAAA | -0.264
CTTTCGGC | -0.198
ATTAATTC | 0.139
CCACGGTC | -0.236
GCGGACGC | -0.292
AGGCACTC | -0.253
ATTTTACG | -0.137
CAGATCAG | 0.353
AAGGTATA | 0.272
AGTACGCG | -0.148
ATGTCCAG | -0.0971
CCCCGTAC | -0.101
AAGGGGGG | -0.0262
GTCTGTGA | 0.0794
CACCTTGG | 0.0659
CAATATTG | 0.0839

Sequence | binding signal [E-score]
ATTGCGGA | 0.254
CGCAATCA | -0.104
GTGTTTCA | -0.0611
AAGGAGTA | 0.0359
AATGGGGC | -0.0701
AAGAAGAC | -0.0165
CAAACAGG | -0.00224
GTATTACA | 0.227
GCAATGCC | -0.0701
TACAAATA | 0.0624
AATCGCAA | -0.0444
AACTCCCG | 0.0855
ACCTTGTC | -0.0473
ATCTAATG | 0.125
CAGGCACG | -0.226
GCAATGAA | -0.106
AGAGGAAA | -0.104
AATCCTCC | 0.184
TGTAGAAA | -0.0351
GCAGCCTA | -0.199
ACTAGAAC | -0.127
CACGCGGG | -0.0634
CACGACGA | -0.0998
CTGCGCAC | -0.236
CGGCCGGA | -0.14

Sequence | binding signal [E-score]
GCACGCTA | 0.026
CAGGACCG | -0.0649
AAAACGCC | -0.203
CTCTGAAC | -0.254
ATGCCGCA | 0.0344
ATGGTCGG | 0.0279
CGAGGCTC | -0.0189
AGATTCGA | -0.0896
CCTCACAG | -0.0445
CTTTGAGA | -0.021
ATCCTGAA | 0.218
ATTCTAGG | -0.0311
CGAATGAA | -0.167
GTGGTGTA | 0.286
ACGCGTAT | 0.327
GGATCGAC | 0.297
CACTATAA | -0.0569
GGCCACGA | -0.202
GAGATTGC | -0.0337
CTACTGGA | -0.00869
CGGAGAAA | -0.0585
CCGCAAGG | -0.104
CAGAACCG | -0.0472
ACCGTCAC | -0.121
ACACCCTC | 0.306

Sequence | binding signal [E-score]
ACTGACTA | -0.159
CCACTTCA | 0.0318
AATAGACC | -0.0377
GCAGTTAC | -0.0131
CACCCGTG | 0.0327
GACAGTCC | -0.203
ATACACAT | 0.289
AGCGCCAA | -0.124
CCTTATAA | 0.124
CACCTTGA | 0.0639
CAGGTCAA | -0.282
GTGACCGA | -0.155
CTCCAGGA | 0.161
CAATAACG | 0.0172
TAGAGTAA | 0.0878
AAAGTGTG | -0.14
GCTACTTA | -0.19
CCGACGAA | -0.0371
AGCTTGCC | -0.168
ATGCGGAC | 0.0869
GACCATTA | -0.146
AACCCAAT | -0.0919
ACTACCAC | -0.0152
ATGCACAC | 0.158
ATCTCAGA | 0.31

Sequence | binding signal [E-score]
ACACTTAA | -0.0556
CATCGCTC | -0.0961
AGCAACCC | -0.193
GCACAGAC | -0.0294
AGTTCCAT | 0.0254
ACCCCCCC | 0.088
ATATCGGA | 0.427
AGCTAATG | -0.196
AGGGTGAA | -0.142
GGGTTTGA | 0.0715
GGGTACGA | 0.08
ATTGCGAG | 0.141
CTTTGAGC | -0.13
AATACGCC | 0.188
ATGACATG | 0.0904
CCGGCTGC | -0.0273
GGGCCAGA | 0.0366
AGCGATAA | -0.0219
GAGTCTCA | -0.0837
AGTTCGAC | -0.295
ATACCATA | 0.394
ACCGCGGC | -0.0758
